# The campaign covered roughly 350,000 compounds. About 9,900 (2.8%) were called active. Inconclusive means that the source gave no clear call. Such entries were picked first, then a sample of the others. The call rests on the fitted dose curve; in most records, active means well fitted activation curve with a large enough effect; inconclusive means small, poorly fitted or top-dose-only effect; inactive means no such curve, though single readings can be large or run the other way. No potency is given beside an inconclusive call; the fits are too rough.
# Assay: A quantitative high throughput screen for small molecules that induce DNA re-replication in MCF 10a normal breast cells. Further: nearly all actives have a fitted effect of over 50% in size.
# Conditions: MCF 10A DNA re-replication, Hoechst nuclear intensity, 48 h; series mostly up to 46.1 µM
# Potency means the concentration at half of the fitted maximal effect; tags describe the fitted curve by direction and shape.
row,Structure (SMILES),Potency
1,O=C1CN(C(=O)CSc2nc(-c3ccccc3)cs2)c2ccccc2N1,"inconclusive [activator, partial curve, poor fit]"
2,O=C(NCCc1ccccc1)C1CCCN(S(=O)(=O)c2cnc[nH]2)C1 (configuration not stated),inactive
3,COc1ccc(/C=C/C(=O)C2CC2)cc1COc1cccc(C)c1C,"inconclusive [activator, single point]"
4,CC(C)c1ccc(Oc2cccc(C(=O)/C(C#N)=C/N(C)C)c2)cc1,"inconclusive [activator, single point]"
5,Cc1ccnc(NC(=O)c2cccc(NC(=O)c3ccc(Cl)cc3)c2)c1,"inconclusive [activator, partial curve, poor fit]"
6,CCCCc1nnc(NC(=O)CSc2nc(C)cc(=O)[nH]2)s1,"inconclusive [activator, partial curve, poor fit]"
7,O=S1(=O)c2ccccc2OC(COCc2ccccc2)CN1Cc1ccccc1 (configuration not stated),"inconclusive [activator, single point]"
8,Cc1c(C(=O)Nc2ccc(Cl)cc2)c2ccccn2c1CCc1ccncc1,"inconclusive [activator, single point]"
9,Cc1cccc(C)c1NC(=O)C(C)c1ccc(-c2ccccc2)c(F)c1 (configuration not stated),"inconclusive [activator, partial curve]"
10,NC(=O)CC1C(=O)N(c2ccc(F)cc2)C(=O)N1NC(=O)CCc1ccccc1 (configuration not stated),inactive
11,COC(=O)C1=C(C)N=c2s/c(=C/c3ccoc3)c(=O)n2C1c1ccccc1 (configuration not stated),"inconclusive [activator, single point]"
12,Cc1ccc2c(c1)C(c1ccc(N3CCOCC3)cc1)=NNC(c1cccs1)=N2,"inconclusive [activator, partial curve, poor fit]"
13,CCCCCn1c(=N)c(S(=O)(=O)c2ccc(Br)cc2)cc2c(=O)n3cccc(C)c3nc21,"inconclusive [activator, partial curve]"
14,O=C(CNc1cccc2ccccc12)c1ccc([N+](=O)[O-])cc1,"inconclusive [activator, single point]"
15,COc1ccccc1-c1nc2cc3ccccc3cc2nc1-c1ccccc1OC,"inconclusive [activator, single point]"
16,CCn1nc(C(=O)NCC2COc3ccccc3O2)c2ccccc2c1=O (configuration not stated),"inconclusive [activator, single point]"
17,c1ccc(N2CCOCCOCCOCCOCC2)cc1,"inconclusive [activator, single point]"
18,O=CN1CCN(C(=O)CC(c2ccccc2)c2cc(Br)ccc2O)CC1 (configuration not stated),"inconclusive [activator, single point]"
19,CCN1C(=O)C(CC(=O)Nc2ccc(OC)cc2)N(CCCN2CCN(c3ccc(F)cc3)CC2)C1=S (configuration not stated),"inconclusive [activator, single point]"
20,CCC(=O)N1CCN(c2ccccc2NC(=O)c2ccc([N+](=O)[O-])o2)CC1,inactive
21,Nc1nc(Nc2ccccc2F)sc1C(=O)c1ccccc1,"inconclusive [activator, single point]"

row,Structure (SMILES),Potency
1,CC(C)CCCCCCCCCCCCC(=O)NCC(=O)NC1C(C)OC(Nc2ncnc3nc[nH]c23)C(O)C1O (configuration not stated),inactive
2,Cc1ccc2[nH]c(-c3ccccc3)cc(=O)c2c1,"inconclusive [activator, full curve, poor fit]"
3,COC(=O)C1=C(C)NC2=C(C(=O)CCC2)C1c1cn(Cc2ccc(Br)cc2)nc1-c1ccccc1 (configuration not stated),"inconclusive [activator, single point]"
4,CC(/C=C/c1ccccc1)=N/NC(=O)c1nc2nc(C)cc(C)n2n1,inactive
5,CCOC(=O)N1CCN(S(=O)(=O)c2ccc(C(=O)N(CCN(C)C)c3nc4ccc(CC)cc4s3)cc2)CC1,inactive
6,COc1ccc(/C=C/C(=O)N(CC(C)C)CC(C)C)cc1Br,"inconclusive [activator, single point]"
7,O=c1ccn(Cc2ccccc2)c(=O)n1Cc1ccccc1,active: 20.6 µM
8,O=C(Nc1ccccc1N1CCCCC1)c1ccc(-c2ccc(Cl)cc2)o1,"inconclusive [activator, full curve, poor fit]"
9,O=C(NC1=NCCS1)c1ccc(Cl)c(S(=O)(=O)N2CCc3ccccc32)c1,"inconclusive [activator, partial curve, poor fit]"
10,NCCCNC(=O)Cn1c(=O)c2c3c(sc2n(Cc2ccccc2)c1=O)CCCC3,inactive
11,CCOc1cc(NC(=S)NCc2ccco2)c(OCC)cc1NC(C)=O,inactive
12,CCCCC1CCC(c2nc(-c3ccccn3)no2)CC1 (configuration not stated),"inconclusive [activator, single point]"
13,CN1CCN(C(=O)CCN2C(=O)/C(=C\c3ccc(Cl)cc3)SC2=S)CC1,"inconclusive [activator, full curve]"
14,O=C(Nc1ccccc1Cl)c1ccccc1,inactive
15,CN1CCN(c2ccc(S(=O)(=O)N3CCCCC3)cc2NC(=O)c2ccc3ccccc3c2)CC1,active: 23.1 µM
16,CCCCCCCCOC(=O)C1=C(C)Nc2nnnn2C1c1cccs1 (configuration not stated),"inconclusive [activator, single point]"
17,O=C(/C=C/c1cccs1)N1CCC2(CC1)Oc1ccc(Cl)cc1C(=O)C21CC(c2ccc(Cl)cc2)=NO1 (configuration not stated),"inconclusive [activator, single point]"
18,NC1=C(Cl)C(=O)c2ccccc2C1=O,"inconclusive [activator, full curve, poor fit]"
19,COc1ccc(C(=O)C2CCN(CC(=O)Nc3cc(C)cc(C)c3)CC2)cc1,"inconclusive [activator, single point]"
20,N#CC1=C(N)N2C(=C(C#N)C13CCCCC3)SC1CCCCC12O (configuration not stated),"inconclusive [activator, single point]"
21,CSc1ccc(CN2CCN(C(=O)c3ccncc3)CC2)cc1,"inconclusive [activator, single point]"

# Source: PubChem BioAssay AID624296 (National Center for Advancing Translational Sciences (NCATS), 2012)
